Drawing on the supplement of paper PMC9446081, this text covers relative growth for 62 compounds.

Hit rate of the full screen: of about 39,000 compounds, about 220 (0.56%) showed activity. This is one part of the list.
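Note: static incubation at 37 °C against the wild-type strain, values averaged over two biological replicates.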

This assay deals with Escherichia coli K-12 BW25113. In words: relative growth (OD600 normalised to plate interquartile mean) (fraction); higher = less growth inhibition, active = 0.2 or less. Particulars: 50 µM; LB; incubation time: overnight (16-24 h).
Take `C[C@@H]1CCCCO[C@@H](CN(C)CC2CCCCC2)[C@H](C)CN([C@H](C)CO)C(=O)c2cc(NC(=O)Nc3cccc4ccccc34)ccc2O1`: the relative growth is inactive: 0.961. For `CCCNC(=O)N[C@H]1CC[C@H](CC(=O)N2CCN(C)CC2)O[C@H]1CO` the value was inactive: 1.02. In the case of `Cc1cc(=O)oc2c(O)c(O)ccc12`, the relative growth was inactive: 1.06. With `Cc1noc(C)c1NC(=O)Nc1ccc2c(c1)C(=O)N([C@@H](C)CO)C[C@H](C)[C@H](CN(C)Cc1ccc(C(=O)Nc3ccccc3N)cc1)O2`, the relative growth was inactive: 0.977. The figure for `O=C([C@H]1[C@H](CO)[C@H]2Cn3c(cccc3=O)[C@H]2N1C(=O)C1CCCC1)N1CCOCC1` is inactive: 0.994; for `COC(=O)[C@@H](N)CS[C@H]1CCCCO1` it is inactive: 0.998; for `COc1ccc(CN(C)C[C@@H]2OCCCC[C@@H](C)Oc3ccc(NC(=O)NC4CCCCC4)cc3C(=O)N([C@@H](C)CO)C[C@@H]2C)cc1` it is inactive: 0.96. The figure for `C[C@H](CO)N1C[C@H](C)[C@@H](CN(C)Cc2ccc(Cl)c(Cl)c2)Oc2c(NC(=O)Nc3ccccc3)cccc2C1=O` is inactive: 0.953; for `COc1ccccc1-c1ccc2c(c1)O[C@@H](CN(C)CC1CCOCC1)[C@H](C)CN([C@@H](C)CO)S2(=O)=O` it is inactive: 0.976; for `CC(C)(C)c1ccc(C(O)CCCN2CCC(C(O)(c3ccccc3)c3ccccc3)CC2)cc1` (configuration not stated) it is inactive: 0.888. The figure for `O=C(C[C@H]1CC[C@H]2[C@@H](COC[C@@H](O)CN2Cc2ccccc2F)O1)N[C@H]1CCN(Cc2ccccc2)C1` is inactive: 1.01. Turning to `O=C(O)[C@@H]1CCCCN1`, the relative growth was inactive: 1.03. In the case of `COc1ccc(NC(=O)N(C)C[C@@H]2OCCCC[C@@H](C)Oc3ccc(NC(=O)Nc4c(C)noc4C)cc3C(=O)N([C@H](C)CO)C[C@@H]2C)cc1`, the relative growth is inactive: 0.995. The figure for `CC(C)[N+]1(C)C2CCC1CC(OC(=O)C(CO)c1ccccc1)C2.[Br-]` (configuration not stated) is inactive: 1.17; for `COc1ccc(NC(=O)Nc2ccc3c(c2)C(=O)N([C@@H](C)CO)C[C@H](C)[C@@H](CN(C)CC2CCCCC2)O3)cc1` it is inactive: 0.959. The figure for `CC(C)=CCC/C(C)=C/C(=O)O` is inactive: 0.7; for `COc1cccc(-c2ccc3n(c2=O)C[C@H]2[C@H](CO)[C@@H](C(=O)NCC4CC4)[C@@H]3N2S(C)(=O)=O)c1` it is inactive: 1.01. On to `CC1=C(C(=O)O)N2C(=O)[C@@H](NC(=O)[C@@H](N)c3ccc(O)cc3)[C@H]2SC1`, for which the relative growth was inactive: 0.999. In the case of `C[C@@H]1CCCCO[C@H](CN(C)Cc2ccncc2)[C@H](C)CN([C@H](C)CO)C(=O)c2cc(NC(=O)Nc3ccc(F)cc3)ccc2O1`, the relative growth was inactive: 0.99. Consider `O=C(CN1CCOCC1)NCC[C@H]1CC[C@@H](NC(=O)c2ccc3c(c2)OCO3)[C@@H](CO)O1`, for which the relative growth is inactive: 0.99. The figure for `C[C@@H]1O[C@@H](O[C@H]2[C@H](O[C@H]3[C@H](O)[C@@H](O[C@@H]4O[C@H](CO)[C@@H](O[C@@H]5O[C@H](CO)[C@H](O)[C@H]5O)[C@H](O)[C@H]4O)[C@H](O[C@H]4CC[C@]5(C)[C@H]6CC[C@]78OC[C@@]9(CCC(C)(C)C[C@@H]97)[C@H](O)C[C@@]8(C)[C@]6(C)CC[C@H]5C4(C)C)O[C@@H]3C(=O)O)O[C@H](CO)[C@H](O)[C@@H]2O)[C@H](O)[C@H](O)[C@H]1O` is inactive: 0.973; for `C[C@H](CO)N1C[C@H](C)[C@@H](CN(C)Cc2ccc(Cl)c(Cl)c2)Oc2ccc(NC(=O)CCC(F)(F)F)cc2CC1=O` it is inactive: 0.999. For `C[C@@H]1CCCCO[C@@H](CN(C)C(=O)c2ccccc2)[C@H](C)CN([C@@H](C)CO)C(=O)c2cc(NC(=O)Nc3ccccc3)ccc2O1` the value was inactive: 0.992; for `CN(C)CCN(Cc1cccs1)c1ccccn1.Cl`, inactive: 0.976.

For `COc1ccc(C#Cc2ccc3c(c2)O[C@H](CN(C)S(=O)(=O)c2ccccc2F)[C@@H](C)CN([C@@H](C)CO)S3(=O)=O)cc1`, the relative growth is inactive: 0.998. Regarding `N[C@@H](Cn1ccc(=O)c(O)c1)C(=O)O`, the relative growth is inactive: 0.752. In the case of `C[C@@H]1CN([C@H](C)CO)C(=O)c2cc(NS(=O)(=O)c3ccc(F)cc3)ccc2O[C@@H]1CN(C)S(=O)(=O)c1ccc(F)cc1`, the relative growth is inactive: 0.974.

Consider `C[C@H]1CN([C@@H](C)CO)C(=O)c2cccc(NC(=O)C3CCCCC3)c2O[C@@H]1CN(C)C(=O)Nc1cccc2ccccc12`, for which the relative growth was inactive: 0.966. For `CC(C)(C)c1cc(CN)n[nH]1` the value was inactive: 1.02; for `C[C@H](CO)N1C[C@H](C)[C@@H](CN(C)Cc2ccc(C(F)(F)F)cc2)OCCCC[C@H](C)Oc2ccc(NC(=O)c3ccccc3)cc2C1=O`, inactive: 0.978. Turning to `COc1ccc2c3c(n(c2c1)C)[C@@H](CO)N(CC1CCOCC1)C[C@]13CCN(CC1)C(=O)c1cnccn1`, the relative growth is inactive: 0.998.

Regarding `Cc1noc(C)c1S(=O)(=O)Nc1ccc2c(c1)C(=O)N([C@H](C)CO)C[C@@H](C)[C@H](CN(C)S(=O)(=O)c1cn(C)cn1)O2`, the relative growth was inactive: 0.992. For `C[C@@H]1CN([C@@H](C)CO)C(=O)c2cc(NC(=O)CCC(F)(F)F)ccc2O[C@H]1CN(C)S(C)(=O)=O` the value was inactive: 0.994; for `COc1ccc2c3c(n(c2c1)C)[C@H](CO)N(C[C@]13CN(Cc2ccncc2)C1)C(=O)CN1CCOCC1`, inactive: 0.996. For `C[C@@H]1CCCCO[C@H](CN(C)Cc2ccc(C(F)(F)F)cc2)[C@@H](C)CN([C@@H](C)CO)C(=O)c2cc(NC(=O)CCCN(C)C)ccc2O1` the value was inactive: 0.974. For `COC(=O)c1c2oc(c1C(=O)OC)C(=O)N(C)Cc1cn(nn1)C[C@@H](Cc1ccccc1)NC(=O)N[C@H](CO)CC2` the value was inactive: 1.

For `C[C@H]1CCCCO[C@H](CN(C)Cc2ccncc2)[C@@H](C)CN([C@@H](C)CO)C(=O)c2cc(NC(=O)Nc3ccc4c(c3)OCO4)ccc2O1`, the relative growth is inactive: 0.976. For `C[C@H](CO)N1C[C@H](C)[C@H](CN(C)Cc2ccc(-c3ccccc3)cc2)Oc2c(NS(=O)(=O)c3ccc(F)cc3)cccc2C1=O` the value was inactive: 0.995.

On to `C[C@H]1CN([C@@H](C)CO)C(=O)c2cccc(NC(=O)CCCCCC(=O)Nc3ccccc3N)c2O[C@@H]1CN(C)CC1CCCCC1`, for which the relative growth was inactive: 0.981. For `COc1ccc(CN(C)C[C@H]2OCCCC[C@H](C)Oc3ccc(NS(=O)(=O)c4ccc(OC)cc4)cc3C(=O)N([C@H](C)CO)C[C@@H]2C)cc1` the value was inactive: 1.01. For `CCS(=O)(=O)NCC[C@H]1CC[C@H](NS(=O)(=O)c2ccccc2C)[C@@H](CO)O1` the value was inactive: 0.989; for `COc1ccc(CN(C)C[C@@H]2Oc3c(NC(=O)c4cnccn4)cccc3C(=O)N([C@@H](C)CO)C[C@H]2C)cc1`, inactive: 0.992. For `C[C@H](CO)N1C[C@H](C)[C@H](CN(C)S(=O)(=O)c2cn(C)cn2)Oc2ncc(-c3cccc(C(F)(F)F)c3)cc2C1=O`, the relative growth was inactive: 1.06. Consider `C[C@H](CO)N1C[C@H](C)[C@@H](CN(C)C(=O)Nc2ccc3c(c2)OCO3)Oc2c(NC(=O)C3CCOCC3)cccc2C1=O`, for which the relative growth is inactive: 0.958. The figure for `COc1ccc(S(=O)(=O)N(C)C[C@@H]2OCCCC[C@H](C)Oc3ccc(NC(=O)Nc4c(C)noc4C)cc3C(=O)N([C@H](C)CO)C[C@H]2C)cc1` is inactive: 0.992. Turning to `C[C@@H]1CN([C@@H](C)CO)C(=O)c2cc(NC(=O)Nc3ccc(F)cc3)ccc2O[C@@H]1CN(C)S(=O)(=O)c1cn(C)cn1`, the relative growth is inactive: 0.989. On to `COc1ccc(CN(C)C[C@H]2OCCCC[C@@H](C)Oc3ccc(NS(=O)(=O)c4ccccc4)cc3C(=O)N([C@H](C)CO)C[C@@H]2C)cc1`, for which the relative growth is inactive: 0.973.

For `C[C@@H]1CCCCO[C@H](CN(C)Cc2ccc(C(F)(F)F)cc2)[C@H](C)CN([C@H](C)CO)C(=O)c2cc(NC(=O)NC3CCCCC3)ccc2O1`, the relative growth was inactive: 0.912.

Consider `C[C@H]1CCCCO[C@@H](CN(C)Cc2ccc(C(=O)Nc3ccccc3N)cc2)[C@@H](C)CN([C@@H](C)CO)C(=O)c2cc(N(C)C)ccc2O1`, for which the relative growth was inactive: 0.998. Take `CNC(=O)[C@@]12CCC3(CCN(C(=O)COC)CC3)[C@H]1CN(S(C)(=O)=O)C2`: the relative growth was inactive: 1.05. The figure for `C[C@@H]1CN([C@@H](C)CO)S(=O)(=O)c2ccc(C#Cc3ccccc3)cc2O[C@@H]1CN(C)C(=O)c1ccccn1` is inactive: 1.03. The figure for `Cc1ccc2ncccc2c1` is inactive: 1.01. Regarding `Cc1noc(C)c1S(=O)(=O)N(C)C[C@@H]1OCCCC[C@H](C)Oc2ccc(NC(=O)Nc3ccc(F)cc3)cc2C(=O)N([C@H](C)CO)C[C@H]1C`, the relative growth was inactive: 1.05. For the compound `C[C@H](CO)N1C[C@H](C)[C@@H](CN(C)Cc2ccc(C(F)(F)F)cc2)Oc2ccc(NC(=O)CCCCCC(=O)Nc3ccccc3N)cc2CC1=O`, the relative growth is inactive: 1.01.

As to `O=CC(O)C(O)C(O)CO` (configuration not stated), the relative growth is inactive: 1.02.

Take `C[C@@H]1CN([C@H](C)CO)C(=O)c2ccccc2-c2ccccc2CO[C@H]1CN(C)C(=O)Nc1cccc(F)c1`: the relative growth is inactive: 1.01. For the compound `C[C@@H]1COCCN1`, the relative growth was inactive: 0.934. Consider `C[C@H]1CN([C@@H](C)CO)S(=O)(=O)c2ccc(C#CC(C)(C)O)cc2O[C@@H]1CN(C)C(=O)CN(C)C`, for which the relative growth was inactive: 1. The figure for `COc1cc(CN)cc(OC)c1OC` is inactive: 1; for `CN(CCN)C1CCCCC1` it is inactive: 0.987; for `COc1ccccc1S(=O)(=O)N[C@H]1C=C[C@@H](CC(=O)N2CCOCC2)O[C@@H]1CO` it is inactive: 1. For `C[C@H](CO)N1C[C@H](C)[C@H](CN(C)S(=O)(=O)c2ccc(Cl)cc2)Oc2ccc(NC(=O)C3CC3)cc2C1=O`, the relative growth was inactive: 0.997.
